# Results: PubChem BioAssay AID1477 (National Center for Advancing Translational Sciences (NCATS), 2009)
# Fewer than 10 of roughly 230,000 compounds were called active. This list was built around the results that the source calls inconclusive (neither active nor inactive); the mix of calls is not that of the screen. Calls follow the shape of the dose curve; as a rule, active = well fitted curve in the direction sought with a large enough effect; inconclusive = small, poorly fitted or top-dose-only effect, or effect the other way, or another doubt; inactive = no such curve, though single readings can be large or run the other way. Potencies of inconclusive entries are left out as doubtful fits.
# Molecular target: Runt-related transcription factor 1 (Homo sapiens) + Core-binding factor subunit beta (Homo sapiens) (UniProt Q01196+Q13951)
# Experiment: qHTS Assay for Compounds Blocking the Interaction Between CBF-beta and RUNX1 for the Treatment of Acute Myeloid Leukemia; as to activity, negative = inhibition: % of control where 0% means no effect
# Settings: AlphaScreen CBFb-His/RUNX1-biotin binding, biochemical; activity, negative = inhibition: at 59.8 µM (top of the series) unless noted
# Outline: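 Proteins preincubated together for 20 min at RT before compound addition; 15 min later, nickel and streptavidin beads were added and left 90 min prior to AlphaScreen measurement.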
# Chain of UniProt Q01196 (Q01196 whole entry, looked up): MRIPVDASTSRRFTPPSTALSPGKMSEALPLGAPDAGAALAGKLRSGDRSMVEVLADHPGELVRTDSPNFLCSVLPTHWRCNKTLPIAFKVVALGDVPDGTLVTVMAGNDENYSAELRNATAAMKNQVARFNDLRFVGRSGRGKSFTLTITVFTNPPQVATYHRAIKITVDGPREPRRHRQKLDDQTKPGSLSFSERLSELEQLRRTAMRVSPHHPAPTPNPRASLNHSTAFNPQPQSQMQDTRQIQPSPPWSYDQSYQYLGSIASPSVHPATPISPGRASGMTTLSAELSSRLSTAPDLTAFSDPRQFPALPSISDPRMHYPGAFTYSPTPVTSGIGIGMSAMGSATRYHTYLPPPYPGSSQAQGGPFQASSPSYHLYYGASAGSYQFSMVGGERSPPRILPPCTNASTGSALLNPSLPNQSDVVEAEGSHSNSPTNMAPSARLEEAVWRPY
# Chain of UniProt Q01196 (Q13951 whole entry, looked up): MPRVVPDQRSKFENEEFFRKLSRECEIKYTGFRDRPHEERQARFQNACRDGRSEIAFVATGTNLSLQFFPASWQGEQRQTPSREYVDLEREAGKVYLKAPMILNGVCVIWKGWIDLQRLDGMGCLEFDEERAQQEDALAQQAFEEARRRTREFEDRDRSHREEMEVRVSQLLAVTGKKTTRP
SMILES,Potency,"activity, negative = inhibition"
CCN(Cc1ccccc1)S(=O)(=O)c1ccc(C(=O)Nc2nnc(C3CC3)o2)cc1,"inconclusive [inhibitor, single point]",
CCCN1C2CCCC1CC(NC(=O)c1ccccc1OCC)C2 (centres undefined),,inactive: -0.0014%
CC1CCN(C(=O)CSc2nnc(Cc3ccccc3)o2)CC1,"inconclusive [inhibitor, single point]",
CCOc1ccc2c(C)nc(NC3=NC(C)(C)C=C(C)N3)nc2c1,,inactive: 0.626%
CCN(CC)c1ccc(/C=N/Nc2nc3ccccc3[nH]2)c(O)c1,"inconclusive [inhibitor, partial curve]",
O=C(Nc1nnc(-c2ccc(Cl)cc2)o1)c1nc2ccccc2s1,,inactive: -0.466%
O=C(Nc1cccnc1Cl)c1ccc(=O)oc1,"inconclusive [inhibitor, single point]",
CC1(C)Cc2nc3sc4c(NCCO)ncnc4c3cc2CS1,,inactive: -14.3%
c1ccc2oc(SCc3cn4ccsc4n3)nc2c1,"inconclusive [inhibitor, single point]",
CC(/C=N/NC(=O)CSc1nc2ccccc2n1C)=C\c1ccco1,"inconclusive [inhibitor, single point]",
COc1ccc(C/C(N)=N/OC(=O)COc2ccccc2C)cc1,"inconclusive [activator, single point]",
CCCCCCCCN,,inactive: 12.5% [at 21.7 µM]
O=S(=O)(c1ccc(Br)cc1)n1ccc2ccccc21,"inconclusive [activator, single point]",
Nc1nc2ccccc2n1/N=C/c1ccc([N+](=O)[O-])s1,"inconclusive [activator, single point]",
Cc1cccc(N2C(=O)NC(=O)/C(=C/c3ccc([N+](=O)[O-])o3)C2=O)c1,"inconclusive [inhibitor, single point]",
COC/C=C/C1=CC2=CC(=O)C(C)(OC(=O)c3cnc4ccccc4n3)C(=O)C2=CN1Cc1ccccc1 (centres undefined),"inconclusive [inhibitor, partial curve]",
COC(=O)CSc1ccccc1C(=O)OC,,inactive: -0.983%
Cc1ccc(N(C(=O)C2COc3ccccc3O2)C(C(=O)NC2CCCCC2)c2cn(C)nc2C)cc1 (centres undefined),"inconclusive [inhibitor, full curve, poor fit]",
Cc1cc(/C=N/NC(=O)C(=O)NCc2ccccn2)c(C)n1-c1cccc(Br)c1,"inconclusive [inhibitor, single point]",
O=C(CN1CCN(S(=O)(=O)c2ccc(F)cc2)CC1)c1ccc(O)c(O)c1,"inconclusive [inhibitor, full curve]",
CCCCC1=C(C(=O)OCC)C(C(=O)OCC)Oc2ccccc21 (centres undefined),"inconclusive [activator, partial curve]",
O=c1c(O)c(-c2ccc(O)cc2)oc2cc(O)ccc12,"inconclusive [activator, partial curve]",
N#Cc1c(-c2ccco2)cc(-c2cccnc2)nc1N,"inconclusive [inhibitor, partial curve]",

SMILES,Potency,"activity, negative = inhibition"
CCOC(=O)CSc1cccc2cccnc12,"inconclusive [inhibitor, single point]",
Cc1cccc(N2CCN(C(=O)c3ccc(NS(=O)(=O)c4c(C)noc4C)cc3)CC2)c1C,,inactive: -3.79%
Cc1cc(Nc2ccccc2)n2nc(C)c(-c3ccccc3)c2n1,"inconclusive [activator, partial curve]",
Cc1ccc(/C=N/NS(=O)(=O)c2ccc([N+](=O)[O-])cc2)o1,,inactive: -4.93%
CN1CCN(C2=Nc3cc(F)ccc3Cc3ccccc32)CC1,inactive,
Cc1cccc(-c2noc(CN(C(=O)c3c(-c4ccccc4Cl)noc3C)C(C)C)n2)c1,,inactive: 3.43%
CCSC1=N/C(=C\c2ccc(-c3ccccc3[N+](=O)[O-])o2)C(=O)S1,"inconclusive [inhibitor, single point]",
CC1(C)CC(CCN(Cc2ccccc2)C(=O)c2ccco2)(c2ccccc2)CCO1 (centres undefined),,inactive: -6.44%
CC(C)Cc1nnc(NS(C)(=O)=O)s1,,inactive: 1.23%
COC(=O)c1c(S(=O)(=O)NCc2ccccc2)sc(C(=O)O)c1C,,inactive: -14.7%
Cc1cccc(NS(=O)(=O)c2ccc3[nH]c(=O)cc(C(=O)OC(C)C(=O)Nc4ccc([N+](=O)[O-])cc4)c3c2)c1 (centres undefined),"inconclusive [inhibitor, single point]",
CCOC(=O)N1CCC(NC2CCCCCCC2)CC1,"inconclusive [activator, partial curve]",
C=CCC(C)(NCc1ccccc1)C(=O)OCC (centres undefined),,inactive: 14.3%
c1coc(-c2ccnc3ncnn23)c1,"inconclusive [inhibitor, full curve, poor fit]",
C/C(=N/O)c1ccc2c(c1)OCCOCCOc1cc(/C(C)=N/O)ccc1OCCOCCO2,"inconclusive [inhibitor, single point]",
Nc1ccc(N)c(Cl)c1,"inconclusive [inhibitor, partial curve]",
CCOc1ccccc1-c1nc2c(C(C)(C)C)nn(C)c2c(=O)[nH]1,,inactive: 2.49%
Cc1cccc(C2=NN(c3ccccc3)[C@@H](C(=O)N3CCOC3=O)[C@@H]2C)c1,"inconclusive [activator, partial curve]",
CC1(OC(=O)C2CCCC2)C(=O)C=C2C=C(c3ccsc3)N(CCc3c[nH]c4ccccc34)C=C2C1=O (centres undefined),"inconclusive [inhibitor, partial curve]",
Cn1cccc1/C=C1\C(=O)NC(=O)N(CCC2=CCCCC2)C1=O,"inconclusive [inhibitor, single point]",
Cc1ccc(CNC(=O)CCS(=O)(=O)c2ccc(Br)cc2)cc1,"inconclusive [activator, partial curve]",
Cc1ccc(OCc2nnc(SC3CCc4ccccc4C3=O)n2C)cc1 (centres undefined),"inconclusive [activator, partial curve]",
C=CCc1c(C)nc(C)nc1N/N=C/c1ccccc1O,,inactive: -2.4%

SMILES,Potency,"activity, negative = inhibition"
COc1cc(/C=N/Nc2nc3ccccc3s2)cc([N+](=O)[O-])c1O,"inconclusive [inhibitor, partial curve]",
O=C1CC(=O)N(Cc2ccccc2)C(=O)N1CCCCCCN1C(=O)CC(=O)N(Cc2ccccc2)C1=O,"inconclusive [inhibitor, single point]",
O=C(/C=C/c1ccncc1)c1ccc(NC(=O)c2ccccc2F)cc1,,inactive: -24.4%
Cc1ccc([N+](=O)[O-])cc1-c1[nH]c(-c2ccc(O)c(O)c2)nc1-c1ccccc1,"inconclusive [inhibitor, single point]",
CC(C)[C@@]1(NC(=O)[C@@H]2C[C@@H]3c4cccc5[nH]cc(c45)C[C@H]3N(C)C2)O[C@@]2(O)C3CCCN3C(=O)[C@H](Cc3ccccc3)N2C1=O (some centres undefined),"inconclusive [inhibitor, single point]",
O=c1/c(=C/c2ccco2)sc2nc(-c3ccccc3Br)nn12,"inconclusive [inhibitor, single point]",
O=C(Nc1ccc(F)cc1F)Nc1sccc1-c1nc2ccccc2s1,"inconclusive [activator, single point]",
Cn1c2ccccc2c2cnn(CC(=O)N3CCCCC3)c(=O)c21,,inactive: 9.98%
COc1ccccc1[C@@H]1C(c2ccc(F)cc2)=NN(c2ccccc2)[C@H]1C(=O)N1CCOC1=O,"inconclusive [activator, partial curve]",
Nc1ccc(OCCCc2c(N)nc(N)nc2N)cc1,"inconclusive [inhibitor, single point]",
CSc1ncc(/C=C2/C(=O)NC(=O)N(C3CCCCC3)C2=O)cn1,,inactive: 0.798%
COC(=O)c1ccc(C(=O)Nc2ccc3nc(-c4cccnc4)[nH]c3c2)cc1,"inconclusive [activator, single point]",
O=C(NC(=S)Nc1ccc(N2CCCCC2)cc1)c1cccs1,"inconclusive [inhibitor, single point]",
CCN1C(=O)/C(=C2/C=Cc3cc(C)ccc3N2CC)N(C)C1=S,"inconclusive [inhibitor, single point]",
Cc1nc2ccc(-c3nc4ccc(N)cc4[nH]3)cc2[nH]1,"inconclusive [activator, single point]",
COc1ccc(NCc2ccc3c(c2)OCO3)cc1Cl,"inconclusive [inhibitor, single point]",
COc1cc(N=Nc2cccc(S(N)(=O)=O)c2)c2ccccc2c1N,"inconclusive [inhibitor, single point]",
S=c1nc(-c2cc(Cl)ccc2Cl)[nH][nH]1,"inconclusive [activator, single point]",
NNC(=O)CN1C(=O)Nc2ccc(Br)cc2C1c1ccccc1 (centres undefined),"inconclusive [inhibitor, single point]",
CCN1C(=O)/C(=C/c2ccc(N(CC)CC)cc2OC)C(=O)NC1=S,"inconclusive [inhibitor, single point]",
CCOC(=O)C1=C(CSc2nc3c(cc2C#N)CN(C)CC3)OC(N)=C(C#N)C1c1ccncc1 (centres undefined),"inconclusive [activator, single point]",
CCOC(=O)C1CCCN(c2oc(-c3ccc(OC)cc3)nc2C#N)C1 (centres undefined),"inconclusive [inhibitor, single point]",
CCCCC(=O)N/N=C/c1c(O)n(CC)c(=S)[nH]c1=O,"inconclusive [inhibitor, single point]",
